Results published in the RNAGym collection of RNA variant scans (doi:10.7554/elife.90254).
The source gives no read counts; variants with many changes may rest on few reads.

B1: LINE1-full (parent)
chain: UACGUAGGUGGUUUUCCCCUGAUAGUGCUAAGGGGGCCUGGAAGUUUGGACUGGGCAGAGCUCAACACAGCGUGGCAAAGUGGCUGUGGCUAGACUGCCUCUCUGGAUUCCUCGUCACUCAGCAGGGCAUCUCUGAGAGAAAUGCC

Variants of: B1
Assay: self-cleavage, relative activity (ratio to wild type); higher = more cleavage; in vitro, sequencing; the parent is a self-cleaving ribozyme
Variant U26A G55A U73A C110U has a self-cleavage of 0.06.
With U20C U47C A140U the self-cleavage was 0.
C16U U52C A57U gave a self-cleavage of 0.09.
G86C A117U U132A showed a self-cleavage of 0.03.
G34A U96A A141G gave a self-cleavage of 0.07.
Variant U20A U23C U45C A50G has a self-cleavage of 0.92.
Work on U12A U13C C123A yielded a self-cleavage of 1.41.
U14C A67G U115A A136G showed a self-cleavage of 1.12.
Variant U12C U47A U132C has a self-cleavage of 0.88.
With G21A A24U U130A the self-cleavage was 1.37.
With U13C G33U A57U the self-cleavage was 0.1.
U23C A78G U115A A121G C123A gave a self-cleavage of 1.1.
Variant U9A U26A G35U has a self-cleavage of 1.4.
In the case of U14A U100C U130A, the self-cleavage is reported as 0.9.
Variant U20A U45C A94U A117U A136U A138G has a self-cleavage of 0.42.
In the case of U108C A141G A142G, the self-cleavage is reported as 0.87.
With A42G A94G U134C the self-cleavage was 0.44.
A43G A50U G55U A69G U73A U134C A138G showed a self-cleavage of 0.
For U9C A121G A141G, the self-cleavage was 1.61.
Variant G8A C71U U81A U91C has a self-cleavage of 0.17.
Work on G11A U26C A77G U132C A140G yielded a self-cleavage of 0.84.
Variant U47A U52C U112C has a self-cleavage of 1.09.
Work on U52C U119A C145A yielded a self-cleavage of 1.93.
For U39C A42G U132A, the self-cleavage was 0.66.
For U14C A22G A50G U91C G97A, the self-cleavage was 0.36.
For U29C C38A A65G, the self-cleavage was 0.06.
Work on U12G A50U A67G yielded a self-cleavage of 0.42.
With U14C A50G A141G the self-cleavage was 0.77.
Variant A69G A79G A94G has a self-cleavage of 0.
In the case of A77C A79G A141G, the self-cleavage is reported as 0.61.
U14C A24U A94U U108C A141G showed a self-cleavage of 0.59.
A24G C37G A92U U112C A121G U134A gave a self-cleavage of 0.
In the case of G97A A124G C133U, the self-cleavage is reported as 0.04.
Work on U1C C120U A142G yielded a self-cleavage of 0.98.
For G10U A92U U132A, the self-cleavage was 0.97.
For A22U C99U G125A, the self-cleavage was 0.54.
U12C G41A A79U gave a self-cleavage of 1.77.
With U45G A67G U91C the self-cleavage was 0.
Variant U12G U20C A65G U73C has a self-cleavage of 0.
Work on G34A U85C U87C A107G yielded a self-cleavage of 0.31.
Work on A2G U12A U23C U91A yielded a self-cleavage of 0.16.
For A6U U14C C19U A67G G122A A129G A141G, the self-cleavage was 1.57.
U52A A107U U132C showed a self-cleavage of 0.66.
With A64G G114A A121G the self-cleavage was 0.27.
U12C U45G U62C showed a self-cleavage of 0.25.
Variant U1C A65G U115C has a self-cleavage of 0.
In the case of C51U C71U U112C U132C, the self-cleavage is reported as 0.59.
In the case of A22G A59U A94G U112C C131A, the self-cleavage is reported as 1.62.
A22G U62C U87G A107G U132A showed a self-cleavage of 0.37.
With A2G U9A U26C U39A the self-cleavage was 0.67.
In the case of U13C G34U U85A U102C, the self-cleavage is reported as 0.24.
U9C U14C U20A U26C gave a self-cleavage of 1.49.
U9A U20C A42G C68A U85C gave a self-cleavage of 0.11.
U9A U23A U73C A136U gave a self-cleavage of 0.66.
With A65G A94U U108A the self-cleavage was 0.04.
Variant C3A G34U U62C has a self-cleavage of 0.03.
Work on A65U U91A U102A yielded a self-cleavage of 0.14.
For G36A A67G G86A U91C A92G U119C U130C, the self-cleavage was 0.
In the case of A2U U26A U109A U115A A121G U130C A142G, the self-cleavage is reported as 1.53.
U9A U13A U119C gave a self-cleavage of 0.73.
A22G U47C U100C showed a self-cleavage of 1.67.
With U47C A77U A141G the self-cleavage was 1.91.
U12A A94C A107U G127A gave a self-cleavage of 0.05.
With U5C A30G A69U A77G the self-cleavage was 0.
Work on U46C U91C A124G U132C yielded a self-cleavage of 0.
With A31U C51U U104C G126U the self-cleavage was 0.63.
In the case of A64G G74A U112C, the self-cleavage is reported as 0.15.
Variant U52C U102C U134C has a self-cleavage of 0.
For U45C A50G A136G, the self-cleavage was 0.
A50G A67U U143C showed a self-cleavage of 0.02.
Work on U20C U132C A140U yielded a self-cleavage of 1.48.
For U62A A78G C103U, the self-cleavage was 0.04.
With U47A A124G A136U the self-cleavage was 1.28.
A42G U96C U112C gave a self-cleavage of 0.18.
A64G A107G U130G showed a self-cleavage of 0.38.
For G34C A59U U96C, the self-cleavage was 0.07.
In the case of A22G U87A U119C A141G, the self-cleavage is reported as 0.13.
For A69G G74A U96C, the self-cleavage was 0.05.
U14C U45C A50C U73A G126U gave a self-cleavage of 2.63.
For G27A U73C U143A, the self-cleavage was 1.46.
For A42G G55C U134C, the self-cleavage was 0.
Work on U46A U104G A124G yielded a self-cleavage of 0.57.
U5C U12C A65G U112C showed a self-cleavage of 0.
Variant U20A U23C G75A has a self-cleavage of 0.71.
Variant A31U A43G A67U A79G has a self-cleavage of 0.32.
With U102C U115A A117U U132A A136G U143C the self-cleavage was 2.4.
U14C U26A A79U showed a self-cleavage of 1.49.
U12C U15C U20A C145A gave a self-cleavage of 1.13.
Work on A42G U85A C120U U130A yielded a self-cleavage of 0.16.
Variant U1C U85C A141G has a self-cleavage of 0.27.
With U15C C63U U96C A121G A142G the self-cleavage was 0.06.
With U62C U85C G114A the self-cleavage was 0.03.
For G32A G74A U132C, the self-cleavage was 1.2.
With U5A U12G U13C C123U A129U A136G the self-cleavage was 1.18.
Variant U39C A43G U102C A138G has a self-cleavage of 1.31.
With C3U U14A A43U U112C the self-cleavage was 0.32.
U52A A67U A77G U96A showed a self-cleavage of 0.05.
Variant U12C A59G U62C has a self-cleavage of 0.24.
With U9C A50G U91C C146U the self-cleavage was 1.15.
For U119C C123U C131A, the self-cleavage was 0.85.
In the case of G27A U108C A124G G126A, the self-cleavage is reported as 1.47.
Work on U14C U102C A117G yielded a self-cleavage of 1.58.
A2G U62A U104A U108A gave a self-cleavage of 0.11.
U9C C63A A121U gave a self-cleavage of 0.05.
Variant A2G A30U U87C G122U has a self-cleavage of 0.24.
C76U U109C A129U gave a self-cleavage of 2.01.
U23C G34U A69G A78G U132A gave a self-cleavage of 0.57.
Work on A6U U14A U143C yielded a self-cleavage of 1.17.
Work on A67U U73C A136G yielded a self-cleavage of 0.36.
Variant C19U U45C U100A has a self-cleavage of 0.34.
A30G A65G A117U showed a self-cleavage of 0.28.
U14C U46C C68U A124U showed a self-cleavage of 0.35.
For U15C A42G G72A, the self-cleavage was 1.07.
With G72A U85A U96A the self-cleavage was 0.02.
Work on U12C A69G A117G yielded a self-cleavage of 0.
U45C U102C C120A gave a self-cleavage of 2.24.
G34C A42G G44A gave a self-cleavage of 1.75.
U13C C113A A136G gave a self-cleavage of 0.93.
With A64G U132G A141G A142G the self-cleavage was 0.23.
Work on U5C U52G U100C U102C yielded a self-cleavage of 2.04.
Work on G33A A57C U130C A138G yielded a self-cleavage of 0.16.
U46C A117U U132C A141G gave a self-cleavage of 0.77.
For U9G U46C U85C A121G, the self-cleavage was 0.
With U12A G34U U85C U104A A121U the self-cleavage was 0.13.
With U12A A57G G82A the self-cleavage was 0.95.
In the case of U29C A43G U46A U119C, the self-cleavage is reported as 1.23.
U13C U85A U87A gave a self-cleavage of 0.25.
G34A C71A A94G A142G gave a self-cleavage of 0.05.
U73A A94G U100C showed a self-cleavage of 0.93.
A59U U130C C146U gave a self-cleavage of 0.91.
Work on U9C G21U U108A yielded a self-cleavage of 1.81.
In the case of G36A A42G A69G, the self-cleavage is reported as 0.65.
Variant A65G U85A A136U has a self-cleavage of 0.02.
Variant U15C A50U U87C A138G has a self-cleavage of 0.
Variant A2G U47A A78G has a self-cleavage of 0.22.
Work on U29A C37U A92G C98U U119C A136G G137A yielded a self-cleavage of 0.08.
Work on U26C U46A A59G U115C yielded a self-cleavage of 0.3.
For U1C U104C A142G U143C, the self-cleavage was 2.04.
In the case of A124G U130C A138G, the self-cleavage is reported as 2.43.
Work on U14C U15C A59U A69G yielded a self-cleavage of 0.74.
G54A A78G U85A gave a self-cleavage of 0.03.
Work on A124U A136U U143A yielded a self-cleavage of 1.09.
For U23C A43U C95A A117U, the self-cleavage was 0.06.
In the case of U14G U20A U46A U143A, the self-cleavage is reported as 0.48.
A50U G114A A117G gave a self-cleavage of 1.16.
U5C U73C A78U gave a self-cleavage of 1.51.
In the case of U26A U62A U119A, the self-cleavage is reported as 0.03.
Work on A77U U132A A140G A142G yielded a self-cleavage of 1.81.
With U12C U73C A79U A94G U115A the self-cleavage was 1.38.
In the case of U9C U12A U85C, the self-cleavage is reported as 0.24.
With U81C U115C U143C the self-cleavage was 0.
U13C U52C A57G C98U U108C showed a self-cleavage of 0.21.
U1C U14C U52C U115C showed a self-cleavage of 1.72.
U13C C37U A67G A94G U134A gave a self-cleavage of 0.
With U119C U132C G144A the self-cleavage was 1.49.
Work on A79G C84U A124U yielded a self-cleavage of 0.18.
Variant A42G G72A U91C has a self-cleavage of 0.14.
In the case of G7A A22U U45C U87C, the self-cleavage is reported as 0.2.
Work on U9C A77U A136G yielded a self-cleavage of 0.89.
With U5C A50U U73A U85C A140U the self-cleavage was 0.
For U62C A69U U119A A136U, the self-cleavage was 0.07.
A65C U102C U119A showed a self-cleavage of 0.06.
Work on U12C C61G U81G yielded a self-cleavage of 0.
With U13C U20C C56U U96C A141G the self-cleavage was 0.05.
With U15A A22G U26C G53A A57G U115A A140G U143C the self-cleavage was 0.
A65G U81C A124U A140G showed a self-cleavage of 0.
For G35U U87A U130C U132C A140G, the self-cleavage was 0.07.
